Where a name gives a salt, the structure may show the parent alone. The list shows a part of the results. Many values rest on one well or one pass, so single values are uncertain.
What follows are molecules tested on HCT116-GFP (assay: HCT116-GFP viability (GFP intensity) relative to untreated control, monoculture; higher = less cancer cell killing). Details: culture: HCT116-GFP monoculture; 10 µM; 72 h.
`C[C@]12CC[C@@H]3c4ccc(OC(=O)N(CCCl)CCCl)cc4CC[C@H]3[C@@H]1CC[C@@H]2O` [Estramustine] gave an HCT116-GFP viability of 25.4%.
For `CCC1(c2ccc(N)cc2)CCC(=O)NC1=O` (configuration not stated) [Glutethimide, para-amino], the HCT116-GFP viability was 101%.
`CC[C@@]1([C@@H]2O[C@@H]([C@H]3O[C@@](O)(CO)[C@H](C)C[C@@H]3C)C[C@@H]2C)CC[C@H]([C@]2(C)CC[C@]3(C[C@H](O)[C@@H](C)[C@@H]([C@@H](C)[C@@H](OC)[C@H](C)C(=O)O)O3)O2)O1` [Monensin sodium salt] gave an HCT116-GFP viability of 24.3%.
Work on `CCN(C)C(=O)Oc1cccc([C@H](C)N(C)C)c1` [Rivastigmine] yielded an HCT116-GFP viability of 114%.
Molecule `CN(C)C(=O)Oc1cc(OC(=O)N(C)C)cc(C(O)CNC(C)(C)C)c1` (configuration not stated) [Bambuterol hydrochloride] has an HCT116-GFP viability of 102%.
In the case of `CCn1cc(C(=O)O)c(=O)c2cc3c(cc21)OCO3` [Oxolinic acid], the HCT116-GFP viability is reported as 95.9%.
With `C[C@]12CC[C@H](O)C[C@@H]1CC[C@@H]1[C@@H]2CC[C@]2(C)C(=O)CC[C@@H]12` [Epiandrosterone] the HCT116-GFP viability was 97.8%.
`NCC(O)c1ccc(O)cc1` (racemic) [(+,-)-Octopamine hydrochloride] showed an HCT116-GFP viability of 93.3%.
In the case of `CN1[C@@H]2CC[C@H]1C[C@@H](OC1c3ccccc3CCc3ccccc31)C2` [Deptropine citrate], the HCT116-GFP viability is reported as 76.3%.
Work on `COc1ccc(Cc2nccc3cc(OC)c(OC)cc23)cc1OC` [Papaverine hydrochloride] yielded an HCT116-GFP viability of 56.8%.
`CCC1(CC)C(=O)C=CNC1=O` [Pyrithyldione] showed an HCT116-GFP viability of 84.6%.
`CC(C)(C)NCC(O)c1cc(Cl)c(N)c(Cl)c1` (configuration not stated) [Clenbuterol hydrochloride] showed an HCT116-GFP viability of 92.9%.
Work on `Fc1ccc(C(OCCN2CCN(CCCc3ccccc3)CC2)c2ccc(F)cc2)cc1` yielded an HCT116-GFP viability of 24%.
For `CC(=O)O[C@H]1C[C@H](O[C@H]2[C@@H](O)C[C@H](O[C@H]3[C@@H](O)C[C@H](O[C@H]4CC[C@@]5(C)[C@H](CC[C@@H]6[C@@H]5C[C@@H](O)[C@]5(C)[C@@H](C7=CC(=O)OC7)CC[C@]65O)C4)O[C@@H]3C)O[C@@H]2C)O[C@H](C)[C@H]1O[C@@H]1O[C@H](CO)[C@@H](O)[C@H](O)[C@H]1O` [Lanatoside C], the HCT116-GFP viability was 3.68%.
Molecule `COc1ccc(CCN2CCC(Nc3nc4ccccc4n3Cc3ccc(F)cc3)CC2)cc1` [Astemizole] has an HCT116-GFP viability of 5.53%.
With `Oc1cc(Cl)ccc1Oc1ccc(Cl)cc1Cl` [Triclosan] the HCT116-GFP viability was 77.8%.
Work on `C[N+]1([O-])[C@@H]2C[C@@H](OC(=O)[C@H](CO)c3ccccc3)C[C@H]1[C@@H]1O[C@@H]12` (some centres not stated) [Scopolamin-N-oxide hydrobromide] yielded an HCT116-GFP viability of 114%.
For `C[C@]12N[C@H](Cc3ccccc31)c1ccccc12` [Dizocilpine maleate], the HCT116-GFP viability was 88.8%.
Molecule `O[C@@H]1CCCC[C@H]1N1CCC(c2ccccc2)CC1` [L(-)-vesamicol hydrochloride] has an HCT116-GFP viability of 101%.
With `CCN(CC)C(C)C(=O)c1ccccc1` (configuration not stated) [Amfepramone hydrochloride] the HCT116-GFP viability was 97.5%.
Molecule `CO[C@]12C[C@@H](COC(=O)c3cncc(Br)c3)CN(C)[C@@H]1Cc1cn(C)c3cccc2c13` [Nicergoline] has an HCT116-GFP viability of 69.9%.
`CC(=O)OCC1=C(C(=O)O)N2C(=O)[C@@H](N)[C@H]2SC1` [Cephalosporanic acid, 7-amino] showed an HCT116-GFP viability of 89.6%.
`C[N+]12CCC(CC1)C(OC(=O)C(O)(c1ccccc1)c1ccccc1)C2` (configuration not stated) [Clidinium bromide] showed an HCT116-GFP viability of 106%.
Molecule `C[C@@]12N[C@@H](Cc3ccccc31)c1ccccc12` [(-)-MK 801 hydrogen maleate] has an HCT116-GFP viability of 102%.
With `C[C@]12Cc3c[nH]nc3C[C@@H]1CC[C@@H]1[C@@H]2CC[C@@]2(C)[C@H]1CC[C@]2(C)O` [Stanozolol] the HCT116-GFP viability was 94.9%.
For `CC(C)C[C@H](CN)CC(=O)O` [Pregabalin], the HCT116-GFP viability was 98.7%.
With `CC(C)(C)NCC(O)c1ccccc1Cl` (configuration not stated) [Tulobuterol] the HCT116-GFP viability was 93.8%.
`COc1cc([C@@H]2c3cc4c(cc3[C@H](O)[C@H]3COC(=O)[C@H]23)OCO4)cc(OC)c1OC` [Podophyllotoxin] was tested, and the HCT116-GFP viability was 8.81%.
`CCC1(c2cccc(O)c2)CCCCN(C)C1` (configuration not stated) [Meptazinol hydrochloride] showed an HCT116-GFP viability of 102%.
Work on `C[C@@H]1CC[C@H]2[C@@H](C)C(=O)O[C@@H]3O[C@@]4(C)CC[C@@H]1[C@]32OO4` [Artemisinin] yielded an HCT116-GFP viability of 65.9%.
Work on `CCN(C(C)=O)c1cccc(-c2ccnc3c(C#N)cnn23)c1` [Zaleplon] yielded an HCT116-GFP viability of 87.8%.
`NCCc1c[nH]c2ccc(O)cc12` [Serotonin hydrochloride] gave an HCT116-GFP viability of 89%.
With `CCC(COC(=O)c1cc(OC)c(OC)c(OC)c1)(c1ccccc1)N(C)C` (configuration not stated) [Trimebutine] the HCT116-GFP viability was 70.6%.
For `Clc1ccc(C(OCCN2CCCCC2)c2ccccc2)cc1` (configuration not stated) [Cloperastine hydrochloride], the HCT116-GFP viability was 68.7%.
Work on `CN1CCN(C(=O)OC2c3nccnc3C(=O)N2c2ccc(Cl)cn2)CC1` (configuration not stated) [Zopiclone] yielded an HCT116-GFP viability of 102%.
`C[C@]12CC[C@H](O)C[C@H]1CC[C@@H]1[C@@H]2C[C@@H](O)[C@]2(C)[C@@H](C3=CC(=O)OC3)CC[C@]12O` [Digoxigenin] was tested, and the HCT116-GFP viability was 2.78%.
`CC(Cc1ccccc1)NCCC(c1ccccc1)c1ccccc1` (configuration not stated) [Prenylamine lactate] showed an HCT116-GFP viability of 37%.
For `CC(=O)NC1CCSC1=O` (racemic) [N-Acetyl-DL-homocysteine Thiolactone], the HCT116-GFP viability was 79.2%.
With `NC(=O)C[S+]([O-])C(c1ccccc1)c1ccccc1` (configuration not stated) [Modafinil] the HCT116-GFP viability was 98.5%.
Molecule `Cc1cccc(C)c1NC1=NCCCS1` [Xylazine] has an HCT116-GFP viability of 100%.
For `O=P1(NCCCl)OCCCN1CCCl` (configuration not stated) [Ifosfamide], the HCT116-GFP viability was 99.8%.
`C=C(C)[C@@H]1[C@H]2OC(=O)[C@@H]1[C@]1(O)C[C@H]3O[C@]34C(=O)O[C@H]2[C@]14C` [Picrotoxinin] showed an HCT116-GFP viability of 103%.
In the case of `CC(C)c1c(CN(C)C(C)Cc2ccccc2)n(C)n(-c2ccccc2)c1=O` (configuration not stated) [Famprofazone], the HCT116-GFP viability is reported as 87%.
For `NC(=O)CN1CCCC1=O` [Piracetam], the HCT116-GFP viability was 94.2%.
Work on `CC(=O)OCC(=O)[C@H]1CC[C@H]2[C@@H]3CC[C@H]4C[C@H](O)CC[C@]4(C)[C@H]3C(=O)C[C@]12C` [Alfadolone acetate] yielded an HCT116-GFP viability of 87%.
`CC(C)CC(N(C)C)C1(c2ccc(Cl)cc2)CCC1` (configuration not stated) [Sibutramine hydrochloride] was tested, and the HCT116-GFP viability was 87.5%.
With `O=C([O-])c1ccccc1-c1c2cc(Br)c(=O)cc-2oc2[c]([Hg+])c([O-])c(Br)cc12.[Na+].[Na+].[OH-]` [Merbromin] the HCT116-GFP viability was 86.7%.
`O=c1[nH]c2ccccc2n1CCCN1CCC(n2c(=O)[nH]c3cc(Cl)ccc32)CC1` [Domperidone] gave an HCT116-GFP viability of 84.3%.
In the case of `C#C[C@]1(O)CC[C@H]2[C@@H]3CCC4=CC(=O)CC[C@]4(C)[C@H]3CC[C@@]21C` [Ethisterone], the HCT116-GFP viability is reported as 90.9%.
`CC(C)[N+](C)(CCC(C(N)=O)(c1ccccc1)c1ccccc1)C(C)C` [Isopropamide iodide] was tested, and the HCT116-GFP viability was 108%.
With `S=C(NC1CCCCC1)N1CCC(c2cnc[nH]2)CC1` [Thioperamide maleate] the HCT116-GFP viability was 97.5%.
With `COc1ccc2c(c1)[C@]13CCCC[C@@H]1[C@H](C2)N(C)CC3` [Dextromethorphan hydrobromide monohydrate] the HCT116-GFP viability was 82.1%.
With `CNCC(O)c1ccc(O)cc1` (racemic) [(+,-)-Synephrine] the HCT116-GFP viability was 99.5%.
`C[C@]12CC[C@@H](O)C[C@@H]1CC[C@@H]1[C@@H]2CC[C@]2(C)C(=O)CC[C@@H]12` [Androsterone] showed an HCT116-GFP viability of 103%.
With `C=CC[C@]1(O)CC[C@H]2[C@@H]3CCC4=CC(=O)CCC4=C3C=C[C@@]21C` [Altrenogest] the HCT116-GFP viability was 80%.
`C1CCc2nnnn2CC1` [Pentylenetetrazole] showed an HCT116-GFP viability of 106%.
`CC(Cc1ccc(O)cc1)NCC(O)c1cc(O)cc(O)c1` (configuration not stated) [Fenoterol hydrobromide] showed an HCT116-GFP viability of 89.7%.
For `CC(C)N(CCC(C(N)=O)(c1ccccc1)c1ccccn1)C(C)C` (configuration not stated) [Disopyramide], the HCT116-GFP viability was 105%.
With `C[C@H](N)[C@H](O)c1ccc(O)c(O)c1` [Levonordefrin] the HCT116-GFP viability was 111%.
Work on `O=[N+]([O-])O[C@@H]1CO[C@H]2[C@@H]1OC[C@@H]2O` [Isosorbide mononitrate] yielded an HCT116-GFP viability of 108%.
`CN[C@@H]1C[C@@H](c2ccc(Cl)c(Cl)c2)c2ccccc21` [Indatraline hydrochloride] showed an HCT116-GFP viability of 51%.
Molecule `CN1[C@@H]2CC[C@H]1C[C@@H](OC(=O)[C@H](CO)c1ccccc1)C2` [Hyoscyamine (L)] has an HCT116-GFP viability of 114%.
Molecule `C[C@]12CC[C@H]3[C@@H](CCC4=CC(=O)CC[C@@H]43)[C@@H]1CC[C@@H]2O` [Nandrolone] has an HCT116-GFP viability of 96%.
`COc1ccc(CN2CCNCC2)c(OC)c1OC` [Trimetazidine dihydrochloride] gave an HCT116-GFP viability of 104%.
For `CCCN1C[C@H](CSC)C[C@@H]2c3cccc4[nH]cc(c34)C[C@H]21` [Pergolide mesylate], the HCT116-GFP viability was 93.9%.
In the case of `COc1ccc(CCN)cc1OC` [Homoveratrylamine], the HCT116-GFP viability is reported as 93%.
Molecule `CC[C@@]1(O)C(=O)OCc2c1cc1n(c2=O)Cc2cc3ccccc3nc2-1` [Camptothecine (S,+)] has an HCT116-GFP viability of 6.54%.
`CCC(=O)O[C@@](Cc1ccccc1)(c1ccccc1)[C@@H](C)CN(C)C` [Levopropoxyphene napsylate] gave an HCT116-GFP viability of 107%.
Molecule `C[N+](C)(C)CCCCCCCCCC[N+](C)(C)C` [Decamethonium bromide] has an HCT116-GFP viability of 97.4%.
With `c1ccc2nc(N3CCNCC3)ccc2c1` [Quipazine dimaleate salt] the HCT116-GFP viability was 105%.
In the case of `C[N+]1(C)[C@@H]2CC[C@H]1C[C@@H](OC(=O)C(CO)c1ccccc1)C2` (some centres not stated) [Methylatropine nitrate], the HCT116-GFP viability is reported as 102%.
With `CN1C[C@H](C(=O)N[C@]2(C)O[C@@]3(O)[C@@H]4CCCN4C(=O)[C@H](Cc4ccccc4)N3C2=O)C[C@@H]2c3cccc4[nH]cc(c34)C[C@H]21` [Dihydroergotamine tartrate] the HCT116-GFP viability was 103%.

— the supplement of paper PMC9938546
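Also: viability estimated indirectly by image-based GFP quantification with live-cell imaging of the constitutively GFP-expressing human colorectal cancer line, no immune cells added.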
